Source: patent US20240025997A1

Experiments:
Experiment in all cases: cell-based or functional assay
[1] = biological target: cyno ILT2 chimeric reporter receptor (cyno ILT2 extracellular domain fused to PILRbeta transmembrane/intracellular domain) (cynomolgus monkey)
[2] = biological target: human ILT2 chimeric reporter receptor (ILT2 extracellular domain fused to PILRbeta transmembrane/intracellular domain) (human), Q8NHL6
[3] = biological target: human ILT4 chimeric reporter receptor (ILT4 extracellular domain fused to PILRbeta transmembrane/intracellular domain) (human), Q8N423
Chain of human ILT4 chimeric reporter receptor (ILT4 extracellular domain fused to PILRbeta transmembrane/intracellular domain) (human), Q8N423 (Q8N423 other isoform, or with tags, fused parts or gaps mutant limits assumed): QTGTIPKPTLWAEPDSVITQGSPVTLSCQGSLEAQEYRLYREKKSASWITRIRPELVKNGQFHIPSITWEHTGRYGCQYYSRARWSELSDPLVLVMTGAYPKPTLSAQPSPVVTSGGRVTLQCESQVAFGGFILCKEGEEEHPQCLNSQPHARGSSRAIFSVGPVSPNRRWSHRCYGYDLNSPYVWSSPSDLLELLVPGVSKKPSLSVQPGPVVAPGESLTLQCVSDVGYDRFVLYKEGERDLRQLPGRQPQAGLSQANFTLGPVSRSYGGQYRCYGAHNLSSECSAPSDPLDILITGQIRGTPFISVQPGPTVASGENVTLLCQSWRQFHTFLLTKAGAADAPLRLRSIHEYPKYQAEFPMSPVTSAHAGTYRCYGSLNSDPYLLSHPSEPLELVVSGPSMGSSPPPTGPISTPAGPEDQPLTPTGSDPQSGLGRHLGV

Chain of human ILT2 chimeric reporter receptor (ILT2 extracellular domain fused to PILRbeta transmembrane/intracellular domain) (human), Q8NHL6 (Q8NHL6 24-461 limits assumed, change not shown): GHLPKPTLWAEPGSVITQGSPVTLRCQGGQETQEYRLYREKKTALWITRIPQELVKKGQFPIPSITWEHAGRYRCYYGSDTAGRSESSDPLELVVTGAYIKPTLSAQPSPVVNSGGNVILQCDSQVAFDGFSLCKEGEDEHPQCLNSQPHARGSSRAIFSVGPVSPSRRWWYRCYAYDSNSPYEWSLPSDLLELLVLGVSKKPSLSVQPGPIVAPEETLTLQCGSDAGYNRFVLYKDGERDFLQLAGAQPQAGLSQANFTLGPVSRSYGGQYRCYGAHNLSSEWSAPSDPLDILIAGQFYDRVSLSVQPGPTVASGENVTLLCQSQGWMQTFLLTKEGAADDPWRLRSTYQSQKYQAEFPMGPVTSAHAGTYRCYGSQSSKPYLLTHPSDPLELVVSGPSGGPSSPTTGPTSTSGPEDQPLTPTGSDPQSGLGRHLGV

B1: humanized anti-ILT2/ILT4 antibody Hz73D1.v1 (antibody, human IgG1, kappa)
heavy: QVQLVQSGAEVKKPGASVKVSCKASGYTFTDYYINWVRQAPGQGLEWMGNVNPNDGGTTYNQKFKGRVTMTTDTSTSTAYMELRSLRSDDTAVYYCARREIYFYGTIYYYAMDYWGQGTLVTVSSASTKGPSVFPLAPSSKSTSGGTAALGCLVKDYFPEPVTVSWNSGALTSGVHTFPAVLQSSGLYSLSSVVTVPSSSLGTQTYICNVNHKPSNTKVDKKV[human IgG1 Fc with changes omitted here]
light: DIQLTQSPSFLSASVGDRVTITCRASESVDYYGNSFMYWYQQKPGKAPKLLIYFASNLESGVPSRFSGSGSGTEFTLTISSLQPEDFATYYCQQNNEDPWTFGGGTKVEIKRTVAAPSVFIFPPSDEQLKSGTASVVCLLNNFYPREAKVQWKVDNALQSGNSQESVTEQDSKDSTYSLSSTLTLSKADYEKHKVYACEVTHQGLSSPVTKSFNRGEC
Raji Cell IC50 (nM); GFP-positive reporter cells [1]: 0.094 nM | 721.221-HLA-G IC50 (nM); GFP-positive reporter cells [2]: 0.23 nM | Raji Cell IC50 (nM); GFP-positive reporter cells [2]: 0.25 nM | 721.221-HLA-G IC50 (nM); GFP-positive reporter cells [3]: 0.26 nM | Raji Cell IC50 (nM); GFP-positive reporter cells [3]: 0.066 nM
